Holding throughout (test): NCI-60 cell line screen, 48 h
Test [1] deals with A549 NSCLC.
Test [2] concerns HOP-62 NSCLC.
Test [3] relates to U251 CNS.
Test [4] relates to LXFL 529 NSCLC.
For test [5], the system named is NCI-H226 lung.
In test [6] the test system is MDA-MB-231 breast.
For test [7], the system named is OVCAR-5 ovarian.
In test [8] the test system is OVCAR-4 ovarian.
In test [9] the test system is CAKI-1 renal.
Test [10] has as its system SW-620 colon.
In test [11] the test system is UACC-62 melanoma.
For test [12], the system named is UACC-257 melanoma.
Test [13] concerns HCT-15 colon.
Test [14] deals with M14 melanoma.
The test system of test [15] is K-562 leukemia.
The subject of test [16] is RPMI-8226 leukemia.
Test [17] concerns NCI-H522 lung.
For test [18], the system named is SNB-75 CNS.
In test [19] the test system is SK-MEL-2 melanoma.
Test [20] has as its system HL-60(TB) leukemia.
The subject of test [21] is SF-268 CNS.
Test [22] deals with SR leukemia.
Test [23] relates to OVCAR-8 ovarian.

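Tested at 5 concentrations; 48 h exposure; 96-well plates; endpoints linearly interpolated, else capped at highest concentration. GI50: concentration for 50% inhibition of growth.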 A number of entries come with more than one value. Only these are listed. The source may hold further records. Records of one sample usually come from different ranges of test concentrations, which the source does not state; some values may only mark the edge of a range.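 Definition used: TGI = concentration required for complete inhibition of growth.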

On to `COc1cccc2c1C(=O)c1c(O)c3c(c(O)c1C2=O)C[C@@](O)(C(=O)CO)CC3OC1CC(NCCCCC(OC(C)=O)OC(C)=O)C(O)C(C)O1` (some centres undefined), for which the TGI in [1] was 6.63 nM and > 1 µM; in test [2] it was 4.79 nM and 184 nM; in test [3], 4.52 nM and > 1 µM; in [4], 5.56 nM and > 1 µM.

For the compound `COC(=O)C12CC(NC(=O)c3csc([C@@H](C[C@H](C(C)C)N(C)C(=O)[C@@H](NC(=O)[C@H]4CCCCN4C)C(C)C)OC(C)=O)n3)(C1)C2`, the TGI in test [5] is 431 nM and > 33.3 µM; in test [6], 86.2 nM and > 33.3 µM. The GI50 in test [7] was 22.3 nM and 957 nM; in test [8], 181 nM and > 33.3 µM.

For `COc1cc2cc(C(=O)N3C[C@H](CCl)c4c3cc(O)c3ccccc43)[nH]c2c(OC)c1OC`, the TGI is 3.26 µM and 23.5 nM in test [9]; 2.12 µM and 51 nM in test [10]; 244 nM and > 100 µM in [11]; 415 nM and > 100 µM in test [12]; 7.06 µM and > 100 µM in [13]; 429 nM and > 100 µM in test [14]. The TGI was 788 nM and > 100 µM in test [15]; 400 nM and 31.7 nM in test [16]; 390 nM and 36.9 nM in [17].

Regarding `COc1ccc(CN[C@H]2CCc3cc(OC)c(OC)c(OC)c3-c3ccc(SC)c(=O)cc32)c(OC)c1OC`, the TGI in test [18] is 69.8 nM and > 100 µM; in test [19], 917 nM and 86.7 nM; in test [20], 68.6 nM and 4.43 µM; in test [21], 225 nM and 24.1 µM; in test [14] it was 190 nM and 11.9 µM; in test [22], 61.4 nM and > 100 µM. The TGI in test [23] was 93.3 nM and 17.2 µM.

The record behind these values is PubChem BioAssay (NCI).
